Results published in the supplement of paper PMC4967469.

Tests used:
Test in all cases: Viability of human cancer cell lines after 72 h of drug (GDSC screen)
Thapsigargin = compound: C/C=C(/C)C(=O)O[C@H]1C(C)=C2[C@H]([C@@H]1OC(=O)CCCCCCC)[C@@](C)(OC(C)=O)C[C@H](OC(=O)CCC)[C@@]1(O)[C@H]2OC(=O)[C@@]1(C)O [Thapsigargin]; settings: top dose 0.512 µM; top dose inferred
Protocol: (§1)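 Human cancer cell lines in 384-well plates, medium with 10% serum, drug for 72 h over a 256-fold dose range (nine 2-fold or five 4-fold steps up to the top dose). Adherent lines were fixed and stained with the nucleic acid dye Syto60, suspension lines read with resazurin; signal relative to control wells, capped at 0 and 100%. One two-parameter sigmoid per drug and line, fitted in a mixed model over all curves with the slope shared within a line.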

QL-X-138 = compound: C=CC(=O)Nc1cc(-n2c(=O)ccc3cnc4ccc(-c5cn[nH]c5)cc4c32)ccc1C [QL-X-138]; settings: top dose 10.24 µM; top dose inferred
Protocol: as §1

GSK269962A = compound: CCn1c(-c2nonc2N)nc2cnc(Oc3cccc(NC(=O)c4ccc(OCCN5CCOCC5)cc4)c3)cc21 [GSK269962A]; settings: top dose inferred
Protocol: as §1

MPS-1-IN-1 = compound: COc1cc(N2CCC(O)CC2)ccc1Nc1cc(Nc2ccccc2S(=O)(=O)C(C)C)c2cc[nH]c2n1 [MPS-1-IN-1]; settings: top dose 20 µM; top dose inferred
Protocol: as §1

(5Z)-7-Oxozeaenol = compound: COc1cc(O)c2c(c1)/C=C/C[C@H](O)[C@H](O)C(=O)/C=C\C[C@H](C)OC2=O [(5Z)-7-Oxozeaenol]; settings: top dose 10 µM; top dose inferred
Protocol: as §1

CP466722 = compound: COc1cc2ncnc(-n3nc(-c4ccccn4)nc3N)c2cc1OC [CP466722]; settings: top dose 16 µM; top dose inferred
Protocol: as §1

Zibotentan = compound: COc1nc(C)cnc1NS(=O)(=O)c1cccnc1-c1ccc(-c2nnco2)cc1 [Zibotentan]; settings: top dose 20 µM; top dose inferred
Protocol: as §1

ABT-888 = compound: C[C@]1(c2nc3c(C(N)=O)cccc3[nH]2)CCCN1 [ABT-888]; settings: top dose 5 µM; top dose inferred
Protocol: as §1

CMK = compound: Cc1ccc(-c2c(C(=O)CCl)n(CCCO)c3ncnc(N)c23)cc1 [CMK]; settings: top dose 4 µM; top dose inferred
Protocol: as §1

ABT-869 = compound: Cc1ccc(F)c(NC(=O)Nc2ccc(-c3cccc4[nH]nc(N)c34)cc2)c1 [ABT-869]; settings: top dose 1.024 µM; top dose inferred
Protocol: as §1

CHIR-99021 = compound: Cc1cnc(-c2cnc(NCCNc3ccc(C#N)cn3)nc2-c2ccc(Cl)cc2Cl)[nH]1 [CHIR-99021]
Protocol: as §1

Cytarabine = compound: Nc1ccn([C@@H]2O[C@H](CO)[C@@H](O)[C@@H]2O)c(=O)n1 [Cytarabine]; settings: top dose 2 µM
Protocol: as §1

KU-55933 = compound: O=c1cc(-c2cccc3c2Sc2ccccc2S3)oc(N2CCOCC2)c1 [KU-55933]; settings: top dose 10 µM
Protocol: as §1

[1] = top dose 2.5 µM, screen: GDSC drug entry 127
[2] = top dose 5 µM, screen: GDSC drug entry 1192
[3] = top dose 2.56 µM, screen: GDSC drug entry 154
[4] = top dose 10 µM, screen: GDSC drug entry 1241, top dose inferred

Cell Line	AUC (Thapsigargin)	IC50 (Thapsigargin) [nM]	AUC (QL-X-138)	IC50 (QL-X-138) [nM]	AUC (GSK269962A; [1])	IC50 (GSK269962A; [1]) [nM]	AUC (GSK269962A; [2])	IC50 (GSK269962A; [2]) [nM]	AUC (MPS-1-IN-1)	IC50 (MPS-1-IN-1) [nM]	AUC ((5Z)-7-Oxozeaenol)	IC50 ((5Z)-7-Oxozeaenol) [nM]	AUC (CP466722)	IC50 (CP466722) [nM]	AUC (Zibotentan)	IC50 (Zibotentan) [nM]	AUC (ABT-888)	IC50 (ABT-888) [nM]	AUC (CMK)	IC50 (CMK) [nM]	AUC (ABT-869)	IC50 (ABT-869) [nM]	AUC (CHIR-99021; [3])	IC50 (CHIR-99021; [3]) [nM]	AUC (CHIR-99021; [4])	IC50 (CHIR-99021; [4]) [nM]	AUC (Cytarabine)	IC50 (Cytarabine) [nM]	AUC (KU-55933)	IC50 (KU-55933) [nM]
P31-FUJ (acute myeloid leukaemia, suspension)	0.265	8.35	0.93	10100	0.995	> 2500	0.149	38.8	0.989	> 20000	0.626	1270	0.915	13600	0.995	> 20000	0.993	> 5000	0.984	> 4000	0.995	> 1020	0.996	> 2560	0.996	> 10000	0.996	> 2000	0.996	> 10000
P32-ISH (Burkitt lymphoma, suspension)	0.277	9.04	0.519	712	0.969	> 2500	0.895	3430	0.866	10900	0.718	2150	0.669	2590	0.995	> 20000	0.995	> 5000	0.789	1310	0.961	> 1020	0.982	> 2560	0.86	5220	0.397	70.2	0.94	> 10000
PF-382 (T-cell lymphoblastic leukaemia, suspension)	0.48	28.5	0.552	872	0.9	> 2500	0.99	> 5000	0.85	12300	0.905	> 10000	0.604	1850	0.983	> 20000	0.981	> 5000	0.742	1100	0.991	> 1020	0.99	> 2560	0.99	> 10000	0.662	330	0.979	> 10000
QIMR-WIL (acute myeloid leukaemia, suspension)	0.71	123	0.433	422	0.678	482	0.872	4500	0.869	17400	0.752	3220	0.589	1740	0.985	> 20000	0.982	> 5000	0.912	> 4000	0.984	> 1020	0.982	> 2560	0.977	> 10000	0.925	> 2000	0.903	> 10000
REH (B-cell leukaemia, suspension)	0.312	9.76	0.336	228	0.936	> 2500	0.846	3420	0.766	7080	0.622	1340	0.634	2310	0.974	> 20000	0.987	> 5000	0.91	> 4000	0.969	> 1020	0.896	> 2560	0.849	7040	0.443	88	0.969	> 10000
RF-48 (stomach, adherent)	0.695	121	0.451	464	0.939	> 2500	0.9	> 5000	0.863	> 20000	0.923	> 10000	0.722	4640	0.971	> 20000	0.985	> 5000	0.768	1680	0.985	> 1020	0.985	> 2560	0.984	> 10000	0.964	> 2000	0.982	> 10000
RKO (large intestine, adherent)	0.219	5.2	0.647	1580	0.917	> 2500	0.984	> 5000	0.838	12200	0.417	378	0.797	6940	0.988	> 20000	0.984	> 5000	0.894	> 4000	0.988	> 1020	0.98	> 2560			0.817	1010	0.974	> 10000
RL (B-cell lymphoma, suspension)	0.94	> 512	0.524	739	0.923	> 2500	0.887	4780	0.802	8870	0.921	> 10000	0.779	5960	0.989	> 20000	0.99	> 5000	0.984	> 4000	0.99	> 1020	0.99	> 2560	0.944	> 10000	0.91	> 2000	0.962	> 10000
ROS-50 (B-cell leukaemia, suspension)	0.518	36.3	0.829	8970	0.984	> 2500	0.975	> 5000	0.822	16100	0.893	> 10000	0.822	13000	0.979	> 20000	0.972	> 5000	0.879	> 4000	0.983	> 1020	0.984	> 2560	0.982	> 10000	0.963	> 2000	0.975	> 10000
RPMI-6666 (Hodgkin lymphoma, suspension)	0.559	47.8	0.367	255	0.886	> 2500	0.947	> 5000	0.801	12200	0.686	2320	0.615	2210	0.977	> 20000	0.976	> 5000	0.776	1940	0.975	> 1020	0.928	> 2560	0.979	> 10000	0.924	> 2000	0.956	> 10000
RPMI-8866 (chronic myeloid leukaemia, suspension)	0.836	306	0.654	1650	0.981	> 2500	0.868	4020	0.893	> 20000	0.581	1020	0.842	10100	0.981	> 20000	0.881	4590	0.92	> 4000	0.988	> 1020	0.987	> 2560	0.97	> 10000	0.817	1020	0.816	5040
RXF393 (kidney, adherent)	0.718	171	0.619	1550	0.663	534	0.726	1800	0.832	> 20000	0.664	2140	0.821	14400	0.975	> 20000	0.958	> 5000	0.858	> 4000	0.967	> 1020	0.822	2330	0.859	> 10000	0.758	959	0.944	> 10000
Raji (Burkitt lymphoma, suspension)	0.552	44	0.783	4010	0.988	> 2500	0.891	> 5000	0.927	> 20000	0.751	3100	0.922	> 16000	0.987	> 20000	0.989	> 5000	0.901	> 4000	0.986	> 1020	0.99	> 2560	0.989	> 10000	0.915	> 2000	0.96	> 10000
Ramos-2G6-4C10 (Burkitt lymphoma, suspension)	0.152	3.41	0.635	1420	0.796	982	0.311	101	0.777	6840	0.781	3530	0.672	2790	0.989	> 20000	0.953	> 5000	0.896	3640	0.981	> 1020	0.975	> 2560	0.967	> 10000	0.861	1310	0.852	6040
SBC-1 (small cell lung carcinoma, suspension)	0.575	50.8	0.627	1410	0.978	> 2500	0.652	810	0.981	> 20000	0.714	2450	0.884	> 16000	0.979	> 20000	0.989	> 5000	0.987	> 4000	0.983	> 1020	0.971	> 2560	0.988	> 10000	0.988	> 2000	0.988	> 10000
SCH (stomach, adherent)	0.988	> 512	0.936	> 10200	0.977	> 2500	0.967	> 5000	0.988	> 20000	0.795	5050	0.975	> 16000	0.988	> 20000	0.986	> 5000	0.969	> 4000	0.985	> 1020	0.974	> 2560	0.987	> 10000	0.879	> 2000	0.977	> 10000
SF539 (glioma, adherent)	0.328	11.2	0.594	1130	0.802	1090	0.937	> 5000	0.948	> 20000	0.705	2210	0.896	> 16000	0.981	> 20000	0.989	> 5000	0.792	1610	0.96	> 1020	0.968	> 2560	0.947	> 10000	0.753	607	0.974	> 10000

The IC50 comes from the fitted curve, where viability falls to half of the control; where the fit passes the top or lowest dose, that dose stands as a limit. For AUC the same curve is integrated over the 256-fold range of doses and scaled to a fraction: 1 means no effect, lower means more sensitive. For some of these results: A top dose marked as inferred comes from the curve model; the source does not state it. For some of these results: Drugs with an entry number were screened twice under separate entries, and the two screens often disagree.
